# Measured values from the supplement of paper PMC8728848.
# The other results are listed elsewhere or left out.
# Key:
# Assay in all cases: glycan array binding signal (z-score within array); higher = stronger binding
# Conditions in all cases: glycan notation: IUPAC condensed, linker removed
# Gal(b1-4)Glc = biological target: Gal(b1-4)Glc
# In short: (§1)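 Arrays were curated from the Consortium for Functional Glycomics database, 3228 in total, and kept only where the protein sequence was available. Binding is expressed as a within-array Z-score. This score was averaged across arrays of the same protein sequence at different concentrations or buffers and across linkers, and negative values can be read as non-binding.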
# Gal(b1-4)Glc6S = biological target: Gal(b1-4)Glc6S
# In short: as §1
# Gal(b1-4)GlcNAc = biological target: Gal(b1-4)GlcNAc
# In short: as §1
# [1] = biological target: Gal(b1-4)GlcNAc(a1-6)Gal(b1-4)GlcNAc
# In short: as §1
# Gal(b1-4)GlcNAc(b1-2)Man = biological target: Gal(b1-4)GlcNAc(b1-2)Man
# In short: as §1
# [2] = biological target: Gal(b1-4)GlcNAc(b1-2)Man(a1-3)Man(b1-4)GlcNAc(b1-4)GlcNAc
# In short: as §1
# [3] = biological target: Gal(b1-4)GlcNAc(b1-2)Man(a1-3)[Gal(b1-4)GlcNAc(b1-2)Man(a1-6)]Man(b1-4)GlcNAc(b1-4)GlcNAc
# In short: as §1
# [4] = biological target: Gal(b1-4)GlcNAc(b1-2)Man(a1-3)[Gal(b1-4)GlcNAc(b1-2)Man(a1-6)]Man(b1-4)GlcNAc(b1-4)[Fuc(a1-6)]GlcNAc
# In short: as §1
# [5] = biological target: Gal(b1-4)GlcNAc(b1-2)Man(a1-3)[Gal(b1-4)GlcNAc(b1-2)Man(a1-6)][Gal(b1-4)GlcNAc(b1-4)]Man(b1-4)GlcNAc(b1-4)[Fuc(a1-6)]GlcNAc
# In short: as §1
# [6] = biological target: Gal(b1-4)GlcNAc(b1-2)Man(a1-3)[Gal(b1-4)GlcNAc(b1-2)Man(a1-6)][GlcNAc(b1-4)]Man(b1-4)GlcNAc(b1-4)[Fuc(a1-6)]GlcNAc
# In short: as §1
# [7] = biological target: Gal(b1-4)GlcNAc(b1-2)Man(a1-3)[Gal(b1-4)GlcNAc(b1-2)][GlcNAc(b1-4)]Man(b1-4)GlcNAc(b1-4)GlcNAc
# In short: as §1
# [8] = biological target: Gal(b1-4)GlcNAc(b1-2)Man(a1-3)[GlcNAc(b1-2)Man(a1-6)]Man(b1-4)GlcNAc(b1-4)GlcNAc
# In short: as §1
# [9] = biological target: Gal(b1-4)GlcNAc(b1-2)Man(a1-3)[GlcNAc(b1-4)][Gal(b1-4)GlcNAc(b1-2)Man(a1-6)]Man(b1-4)GlcNAc(b1-4)GlcNAc
# In short: as §1
# [10] = biological target: Gal(b1-4)GlcNAc(b1-2)Man(a1-3)[Man(a1-6)]Man(b1-4)GlcNAc(b1-4)GlcNAc
# In short: as §1
# [11] = biological target: Gal(b1-4)GlcNAc(b1-2)Man(a1-6)Man(b1-4)GlcNAc(b1-4)GlcNAc
# In short: as §1
# [12] = biological target: Gal(b1-4)GlcNAc(b1-2)Man(a1-6)[GlcNAc(b1-2)Man(a1-3)]Man(b1-4)GlcNAc(b1-4)GlcNAc
# In short: as §1
# [13] = biological target: Gal(b1-4)GlcNAc(b1-2)Man(a1-6)[Man(a1-3)]Man(b1-4)GlcNAc(b1-4)GlcNAc
# In short: as §1
# [14] = biological target: Gal(b1-4)GlcNAc(b1-2)[Gal(b1-4)GlcNAc(b1-4)]Man(a1-3)[Gal(b1-4)GlcNAc(b1-2)Man(a1-6)]Man(b1-4)GlcNAc(b1-4)GlcNAc
# In short: as §1
# [15] = biological target: Gal(b1-4)GlcNAc(b1-2)[Gal(b1-4)GlcNAc(b1-4)]Man(a1-3)[Gal(b1-4)GlcNAc(b1-2)[Gal(b1-4)GlcNAc(b1-6)]Man(a1-6)]Man(b1-4)GlcNAc(b1-4)GlcNAc
# In short: as §1
# [16] = biological target: Gal(b1-4)GlcNAc(b1-2)[Gal(b1-4)GlcNAc(b1-4)]Man(a1-3)[GlcNAc(b1-4)][Gal(b1-4)GlcNAc(b1-2)Man(a1-6)]Man(b1-4)GlcNAc(b1-4)GlcNAc
# In short: as §1
# [17] = biological target: Gal(b1-4)GlcNAc(b1-2)[Gal(b1-4)GlcNAc(b1-4)]Man(a1-3)[GlcNAc(b1-4)][Gal(b1-4)GlcNAc(b1-2)[Gal(b1-4)GlcNAc(b1-6)]Man(a1-6)]Man(b1-4)GlcNAc(b1-4)GlcNAc
# In short: as §1
# [18] = biological target: Gal(b1-4)GlcNAc(b1-2)[Gal(b1-4)GlcNAc(b1-6)]Man(a1-6)[Gal(b1-4)GlcNAc(b1-2)Man(a1-3)]Man(b1-4)GlcNAc(b1-4)GlcNAc
# In short: as §1
# [19] = biological target: Gal(b1-4)GlcNAc(b1-2)[Gal(b1-4)GlcNAc(b1-6)]Man(a1-6)[Gal(b1-4)GlcNAc(b1-2)Man(a1-3)]Man(b1-4)GlcNAc(b1-4)[Fuc(a1-6)]GlcNAc
# In short: as §1
# [20] = biological target: Gal(b1-4)GlcNAc(b1-2)[Gal(b1-4)GlcNAc(b1-6)]Man(a1-6)[GlcNAc(b1-4)][Gal(b1-4)GlcNAc(b1-2)Man(a1-3)]Man(b1-4)GlcNAc(b1-4)GlcNAc
# In short: as §1
# [21] = biological target: Gal(b1-4)GlcNAc(b1-2)[Gal(b1-4)GlcNAc(b1-6)]Man(a1-6)[GlcNAc(b1-4)][Gal(b1-4)GlcNAc(b1-2)[Gal(b1-4)GlcNAc(b1-4)]Man(a1-3)]Man(b1-4)GlcNAc(b1-4)[Fuc(a1-6)]GlcNAc
# In short: as §1
# [22] = biological target: Gal(b1-4)GlcNAc(b1-3)Gal(b1-3)GalNAc
# In short: as §1
# [23] = biological target: Gal(b1-4)GlcNAc(b1-3)Gal(b1-3)GlcNAc
# In short: as §1
# [24] = biological target: Gal(b1-4)GlcNAc(b1-3)Gal(b1-4)Glc
# In short: as §1
# [25] = biological target: Gal(b1-4)GlcNAc(b1-3)Gal(b1-4)GlcNAc
# In short: as §1
# [26] = biological target: Gal(b1-4)GlcNAc(b1-3)Gal(b1-4)GlcNAc(b1-2)Man(a1-3)[Gal(b1-4)GlcNAc(b1-3)Gal(b1-4)GlcNAc(b1-2)Man(a1-6)]Man(b1-4)GlcNAc(b1-4)GlcNAc
# In short: as §1
binder,measurement,setting,value
"Epa1-NP (Candida glabrata), Q6VBJ0 (protein) MILNPALFLNKCVCIYTTLILLLLTNGGYATSSNDISLASKDPTTFPLGCSPDITTPKKGLSMELYSYDFRKKGSYPCWDAAYLDPNYPRTGYKSHRLLAKVDGVTGNINFYYHATKGCTPQLGHLPASYNYPKPLTMTNFTMLLYGYFRPKVTGFHTFTISADDLLFVNFGAGNAFDCCRRDSSADHFGNYQAYAIWGSKTAKDELTVHLDAGVYYPIRLFYNNREYDGALSFTFKTESNENTVSDFSEYFFSLDDTEEGCPGLISYDSSCASVKTSKIIGIDYHTETPNENLVPITKTIYHLGIPCTGTTTTPLCGSGFYDPLANKCVTINTSSTSSVTKTTSHTTSKEVSFHSSISSQKTLIPKSIPSPYGPIKSQSIPTEMETSSEISSSEYAFSDVISTPSHSPYTKKHSSLNSSSYTSTVIHSLTSYSISQGIFSTSLSEQNITSKSSTDKFSTATSMSNNITQSSIIISQFSTNNENYTTTSMHTSSDKISTETLNNSISTTTSILFSNSSTILKNNTTIISSDKDTHYHPVNPTIVCSTNKTEIICASITQPSISNSNNHWSSSVLKFNSTTVRSTLPSSAGSNETSINVPFSSSTESNTSTSSTSTSNSKMVRSTLPSSAGSNETSISVPFSSSTESNTSTSSTSTSNSKMVRSTLPSSAGSNETSINVPFSSSTESNTSTSSTSTSNSKTVRSTPFSSAGIIMTSLSQRNNKSASSYASSNSKCYNTADSCRKVHSTPSYLLTSSYTSEGVDYDCSLVSTKLKINDTNCVNNKHTTKSCLKTSVTTTIPTLEIKTARKSSSNTIGLHSYPTSSPNKSISSAPIIGYISSFKTIKTASPSYQTSDLTTITTITSLNNPGSTAVENTHESNDKSRKTSSNDISSKHSVIKETKDAVESSNKSHQTNTLKCSSIIIASSSHNSYESLGGTTLTLTLSKVYSPQNNDTLPFLEISEVNPSRTVLPESSKMMQYLTSTEERNKTARNTIATNIVSISTFHFEGEGNAIRMGYTQLLLMLIGIIVMNIGT",glycan array binding signal (z-score),Gal(b1-4)Glc,0.332
same,glycan array binding signal (z-score),Gal(b1-4)Glc6S,0.524
same,glycan array binding signal (z-score),Gal(b1-4)GlcNAc,0.766
same,glycan array binding signal (z-score),[1],1.9
same,glycan array binding signal (z-score),Gal(b1-4)GlcNAc(b1-2)Man,-0.27
same,glycan array binding signal (z-score),[2],0.062
same,glycan array binding signal (z-score),[3],1.2
same,glycan array binding signal (z-score),[4],0.002
same,glycan array binding signal (z-score),[5],-0.188
same,glycan array binding signal (z-score),[6],0.111
same,glycan array binding signal (z-score),[7],-0.209
same,glycan array binding signal (z-score),[8],-0.055
same,glycan array binding signal (z-score),[9],-0.191
same,glycan array binding signal (z-score),[10],-0.048
same,glycan array binding signal (z-score),[11],-0.239
same,glycan array binding signal (z-score),[12],-0.242
same,glycan array binding signal (z-score),[13],-0.225
same,glycan array binding signal (z-score),[14],0.847
same,glycan array binding signal (z-score),[15],1.29
same,glycan array binding signal (z-score),[16],0.319
same,glycan array binding signal (z-score),[17],1.55
same,glycan array binding signal (z-score),[18],0.754
same,glycan array binding signal (z-score),[19],1.37
same,glycan array binding signal (z-score),[20],0.156
same,glycan array binding signal (z-score),[21],1.62
same,glycan array binding signal (z-score),[22],-0.137
same,glycan array binding signal (z-score),[23],0.011
same,glycan array binding signal (z-score),[24],0.571
same,glycan array binding signal (z-score),[25],0.898
same,glycan array binding signal (z-score),[26],0.589
